# The other results are listed elsewhere or left out.
# B1: Jacalin (Artocarpus integrifolia) (protein)
# chain: MAYSSLLSLSVLALLFSISSADTRKWFLANGINQNPIGIIEAAVGVSEDLLNLNGMEAKNDEQSGISQTVIVGPWGAKVSTSSNGKAFDDGAFTGIREINLSYNKETAIGDFQVVYDLNGSPYVGQNHKSFITGFTPVKISLDFPSEYIMEVSGYTGNVSGYVVVRSLTFKTNKKTYGPYGVTSGTPFNLPIENGLIVGFKGSIGYWLDYFSMYLSL
# Tests used:
# Experiment in all cases: glycan array binding signal (z-score within array); higher = stronger binding
# Conditions in all cases: glycan notation: IUPAC condensed, linker removed
# [1] = target: GlcNAc(b1-3)Gal(b1-4)GlcNAc(b1-3)Gal(b1-4)GlcNAc
# Procedure, shortened: (§1)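 The Consortium for Functional Glycomics database supplied 3228 glycan arrays, of which those lacking an available protein sequence were dropped. The binding signal, a within-array Z-score, was averaged across arrays of the same protein sequence and across linkers. Negative scores can be read as non-binding.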
# [2] = target: GlcNAc(b1-3)Gal(b1-4)GlcNAc(b1-3)Gal(b1-4)GlcNAc(b1-2)Man(a1-3)[GlcNAc(b1-3)Gal(b1-4)GlcNAc(b1-3)Gal(b1-4)GlcNAc(b1-2)Man(a1-6)]Man(b1-4)GlcNAc(b1-4)GlcNAc
# Procedure, shortened: as §1
# [3] = target: GlcNAc(b1-3)Gal(b1-4)GlcNAc(b1-3)Gal(b1-4)GlcNAc(b1-2)Man(a1-3)[GlcNAc(b1-3)Gal(b1-4)GlcNAc(b1-3)Gal(b1-4)GlcNAc(b1-2)Man(a1-6)]Man(b1-4)GlcNAc(b1-4)[Fuc(a1-6)]GlcNAc
# Procedure, shortened: as §1
# [4] = target: GlcNAc(b1-3)Gal(b1-4)GlcNAc(b1-3)Gal(b1-4)GlcNAc(b1-2)[GlcNAc(b1-3)Gal(b1-4)GlcNAc(b1-3)Gal(b1-4)GlcNAc(b1-6)]Man(a1-6)[GlcNAc(b1-3)Gal(b1-4)GlcNAc(b1-3)Gal(b1-4)GlcNAc(b1-2)Man(a1-3)]Man(b1-4)GlcNAc(b1-4)[Fuc(a1-6)]GlcNAc
# Procedure, shortened: as §1
# [5] = target: GlcNAc(b1-3)Gal(b1-4)GlcNAc(b1-3)Gal(b1-4)GlcNAc(b1-3)Gal(b1-4)GlcNAc(b1-2)Man(a1-3)[GlcNAc(b1-3)Gal(b1-4)GlcNAc(b1-3)Gal(b1-4)GlcNAc(b1-3)Gal(b1-4)GlcNAc(b1-2)Man(a1-6)]Man(b1-4)GlcNAc(b1-4)GlcNAc
# Procedure, shortened: as §1
# [6] = target: GlcNAc(b1-3)Gal(b1-4)GlcNAc(b1-3)Gal(b1-4)GlcNAc(b1-3)Gal(b1-4)GlcNAc(b1-2)Man(a1-3)[GlcNAc(b1-3)Gal(b1-4)GlcNAc(b1-3)Gal(b1-4)GlcNAc(b1-3)Gal(b1-4)GlcNAc(b1-2)Man(a1-6)]Man(b1-4)GlcNAc(b1-4)[Fuc(a1-6)]GlcNAc
# Procedure, shortened: as §1
# [7] = target: GlcNAc(b1-3)Gal(b1-4)GlcNAc(b1-3)Gal(b1-4)GlcNAc(b1-3)Gal(b1-4)GlcNAc(b1-2)[GlcNAc(b1-3)Gal(b1-4)GlcNAc(b1-3)Gal(b1-4)GlcNAc(b1-3)Gal(b1-4)GlcNAc(b1-6)]Man(a1-6)[GlcNAc(b1-3)Gal(b1-4)GlcNAc(b1-3)Gal(b1-4)GlcNAc(b1-3)Gal(b1-4)GlcNAc(b1-2)Man(a1-3)]Man(b1-4)GlcNAc(b1-4)[Fuc(a1-6)]GlcNAc
# Procedure, shortened: as §1
# [8] = target: GlcNAc(b1-3)Gal(b1-4)GlcNAc(b1-3)Gal(b1-4)GlcNAc(b1-3)Gal(b1-4)GlcNAc(b1-3)Gal(b1-4)GlcNAc(b1-2)Man(a1-3)[GlcNAc(b1-3)Gal(b1-4)GlcNAc(b1-3)Gal(b1-4)GlcNAc(b1-3)Gal(b1-4)GlcNAc(b1-3)Gal(b1-4)GlcNAc(b1-2)Man(a1-6)]Man(b1-4)GlcNAc(b1-4)GlcNAc
# Procedure, shortened: as §1
# [9] = target: GlcNAc(b1-3)Gal(b1-4)GlcNAc(b1-3)Gal(b1-4)GlcNAc(b1-3)Gal(b1-4)GlcNAc(b1-3)Gal(b1-4)GlcNAc(b1-2)Man(a1-3)[GlcNAc(b1-3)Gal(b1-4)GlcNAc(b1-3)Gal(b1-4)GlcNAc(b1-3)Gal(b1-4)GlcNAc(b1-3)Gal(b1-4)GlcNAc(b1-2)Man(a1-6)]Man(b1-4)GlcNAc(b1-4)[Fuc(a1-6)]GlcNAc
# Procedure, shortened: as §1
# [10] = target: GlcNAc(b1-3)Gal(b1-4)GlcNAc(b1-3)Gal(b1-4)GlcNAc(b1-3)Gal(b1-4)GlcNAc(b1-3)Gal(b1-4)GlcNAc(b1-2)[GlcNAc(b1-3)Gal(b1-4)GlcNAc(b1-3)Gal(b1-4)GlcNAc(b1-3)Gal(b1-4)GlcNAc(b1-3)Gal(b1-4)GlcNAc(b1-6)]Man(a1-6)[GlcNAc(b1-3)Gal(b1-4)GlcNAc(b1-3)Gal(b1-4)GlcNAc(b1-3)Gal(b1-4)GlcNAc(b1-3)Gal(b1-4)GlcNAc(b1-2)Man(a1-3)]Man(b1-4)GlcNAc(b1-4)[Fuc(a1-6)]GlcNAc
# Procedure, shortened: as §1
# [11] = target: GlcNAc(b1-3)Gal(b1-4)GlcNAc(b1-3)Gal(b1-4)GlcNAc(b1-3)GalNAc
# Procedure, shortened: as §1
# [12] = target: GlcNAc(b1-3)Gal(b1-4)GlcNAc(b1-3)GalNAc
# Procedure, shortened: as §1
# [13] = target: GlcNAc(b1-3)Gal(b1-4)GlcNAc(b1-3)[GlcNAc(b1-3)Gal(b1-4)GlcNAc(b1-3)]GalNAc
# Procedure, shortened: as §1
# [14] = target: GlcNAc(b1-3)Gal(b1-4)GlcNAc(b1-6)[Gal(b1-3)]GalNAc
# Procedure, shortened: as §1
# [15] = target: GlcNAc(b1-3)Gal(b1-4)GlcNAc(b1-6)[GlcNAc(b1-3)Gal(b1-3)]GalNAc
# Procedure, shortened: as §1
# [16] = target: GlcNAc(b1-3)Gal(b1-4)GlcNAc(b1-6)[GlcNAc(b1-3)]Gal(b1-4)GlcNAc
# Procedure, shortened: as §1
# GlcNAc(b1-3)GalNAc = target: GlcNAc(b1-3)GalNAc
# Procedure, shortened: as §1
# GlcNAc(b1-3)Man = target: GlcNAc(b1-3)Man
# Procedure, shortened: as §1
# [17] = target: GlcNAc(b1-3)[GlcNAc(b1-4)][GlcNAc(b1-6)]GlcNAc
# Procedure, shortened: as §1
# [18] = target: GlcNAc(b1-3)[GlcNAc(b1-6)]Gal(b1-4)GlcNAc
# Procedure, shortened: as §1
# [19] = target: GlcNAc(b1-3)[GlcNAc(b1-6)]GalNAc
# Procedure, shortened: as §1
# [20] = target: GlcNAc(b1-3)[GlcNAc(b1-6)]GlcNAc(b1-4)GlcNAc
# Procedure, shortened: as §1
# [21] = target: GlcNAc(b1-4)Gal(b1-4)GlcNAc
# Procedure, shortened: as §1
# GlcNAc(b1-4)GlcNAc = target: GlcNAc(b1-4)GlcNAc
# Procedure, shortened: as §1
# [22] = target: GlcNAc(b1-4)GlcNAc(b1-4)GlcNAc
# Procedure, shortened: as §1
# [23] = target: GlcNAc(b1-4)GlcNAc(b1-4)GlcNAc(b1-4)GlcNAc(b1-4)GlcNAc
# Procedure, shortened: as §1
# [24] = target: GlcNAc(b1-4)GlcNAc(b1-4)GlcNAc(b1-4)GlcNAc(b1-4)GlcNAc(b1-4)GlcNAc
# Procedure, shortened: as §1
# [25] = target: GlcNAc(b1-4)[GlcNAc(b1-6)]GalNAc
# Procedure, shortened: as §1
# [26] = target: GlcNAc(b1-6)Gal(b1-4)GlcNAc
# Procedure, shortened: as §1
# GlcNAc(b1-6)GalNAc = target: GlcNAc(b1-6)GalNAc
# Procedure, shortened: as §1
# [27] = target: GlcNAc6S(b1-3)Gal(b1-4)GlcNAc
# Procedure, shortened: as §1
# Kdn(a2-3)Gal(b1-3)GalNAc = target: Kdn(a2-3)Gal(b1-3)GalNAc
# Procedure, shortened: as §1
# Kdn(a2-3)Gal(b1-3)GlcNAc = target: Kdn(a2-3)Gal(b1-3)GlcNAc
# Procedure, shortened: as §1
# Kdn(a2-3)Gal(b1-4)Glc = target: Kdn(a2-3)Gal(b1-4)Glc
# Procedure, shortened: as §1
# Kdn(a2-3)Gal(b1-4)GlcNAc = target: Kdn(a2-3)Gal(b1-4)GlcNAc
# Procedure, shortened: as §1
# [28] = target: Kdn(a2-3)Gal(b1-4)[Fuc(a1-3)]GlcNAc
# Procedure, shortened: as §1
# Kdn(a2-6)Gal(b1-4)GlcNAc = target: Kdn(a2-6)Gal(b1-4)GlcNAc
# Procedure, shortened: as §1
# [29] = target: Man(a1-2)Man(a1-2)Man(a1-3)Man
# Procedure, shortened: as §1
# [30] = target: Man(a1-2)Man(a1-2)Man(a1-6)[Man(a1-3)]Man
# Procedure, shortened: as §1
# Man(a1-2)Man(a1-3)Man = target: Man(a1-2)Man(a1-3)Man
# Procedure, shortened: as §1
# [31] = target: Man(a1-2)Man(a1-3)[Man(a1-2)Man(a1-6)]Man
# Procedure, shortened: as §1
# [32] = target: Man(a1-2)Man(a1-3)[Man(a1-2)Man(a1-6)]Man(a1-6)[Man(a1-2)Man(a1-2)Man(a1-3)]Man
# Procedure, shortened: as §1
# [33] = target: Man(a1-2)Man(a1-3)[Man(a1-2)Man(a1-6)]Man(a1-6)[Man(a1-2)Man(a1-2)Man(a1-3)]Man(b1-4)GlcNAc(b1-4)GlcNAc
# Procedure, shortened: as §1
# [34] = target: Man(a1-2)Man(a1-3)[Man(a1-6)]Man(a1-6)[Man(a1-2)Man(a1-3)]Man(b1-4)GlcNAc(b1-4)GlcNAc
# Procedure, shortened: as §1
# [35] = target: Man(a1-2)Man(a1-6)[Man(a1-3)]Man(a1-6)[Man(a1-2)Man(a1-2)Man(a1-3)]Man
# Procedure, shortened: as §1
binder,measurement,setting,value
B1,glycan array binding signal (z-score),[1],0.135
same,glycan array binding signal (z-score),[2],0.911
same,glycan array binding signal (z-score),[3],2.52
same,glycan array binding signal (z-score),[4],2.41
same,glycan array binding signal (z-score),[5],3.65
same,glycan array binding signal (z-score),[6],3.32
same,glycan array binding signal (z-score),[7],4.09
same,glycan array binding signal (z-score),[8],4.05
same,glycan array binding signal (z-score),[9],4.23
same,glycan array binding signal (z-score),[10],5.64
same,glycan array binding signal (z-score),[11],1.03
same,glycan array binding signal (z-score),[12],0.937
same,glycan array binding signal (z-score),[13],0.857
same,glycan array binding signal (z-score),[14],-0.081
same,glycan array binding signal (z-score),[15],0.065
same,glycan array binding signal (z-score),[16],0.674
same,glycan array binding signal (z-score),GlcNAc(b1-3)GalNAc,2.11
same,glycan array binding signal (z-score),GlcNAc(b1-3)Man,-0.267
same,glycan array binding signal (z-score),[17],-0.272
same,glycan array binding signal (z-score),[18],0.42
same,glycan array binding signal (z-score),[19],0.283
same,glycan array binding signal (z-score),[20],-0.353
same,glycan array binding signal (z-score),[21],0.18
same,glycan array binding signal (z-score),GlcNAc(b1-4)GlcNAc,1.34
same,glycan array binding signal (z-score),[22],1.91
same,glycan array binding signal (z-score),[23],1.12
same,glycan array binding signal (z-score),[24],0.605
same,glycan array binding signal (z-score),[25],-0.273
same,glycan array binding signal (z-score),[26],-0.255
same,glycan array binding signal (z-score),GlcNAc(b1-6)GalNAc,-0.137
same,glycan array binding signal (z-score),[27],-0.258
same,glycan array binding signal (z-score),Kdn(a2-3)Gal(b1-3)GalNAc,0.731
same,glycan array binding signal (z-score),Kdn(a2-3)Gal(b1-3)GlcNAc,-0.281
same,glycan array binding signal (z-score),Kdn(a2-3)Gal(b1-4)Glc,-0.248
same,glycan array binding signal (z-score),Kdn(a2-3)Gal(b1-4)GlcNAc,-0.27
same,glycan array binding signal (z-score),[28],-0.24
same,glycan array binding signal (z-score),Kdn(a2-6)Gal(b1-4)GlcNAc,-0.248
same,glycan array binding signal (z-score),[29],-0.265
same,glycan array binding signal (z-score),[30],-0.215
same,glycan array binding signal (z-score),Man(a1-2)Man(a1-3)Man,-0.273
same,glycan array binding signal (z-score),[31],-0.266
same,glycan array binding signal (z-score),[32],-0.249
same,glycan array binding signal (z-score),[33],-0.228
same,glycan array binding signal (z-score),[34],-0.265
same,glycan array binding signal (z-score),[35],-0.251
